Data published in the supplement of paper PMC11417369.
This is one part of the list.

These sequences were tested on PF3D7_0420300 AP2 domain 1 (GST-tagged) (assay: gcPBM binding intensity (ln(normalized median fluorescence intensity)); higher = stronger DNA binding).
Procedure, shortened: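 Binding intensity values are the highest Masliner-normalised natural-log median intensity among replicate spots of either probe orientation. The binding step lasted 1 h in 1× PBS with 1% milk, 0.2 mg/ml BSA, 0.5% salmon testes DNA and 0.03% Triton X-100, using GST-tagged P. falciparum DNA-binding domains expressed in E. coli on an Agilent 4 × 180k array of primer-extended double-stranded 36-bp intergenic genomic probes plus negative controls. Alexa488 anti-GST antibody and a 488 nm scan detected bound protein.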

Sequence | gcPBM binding intensity (ln)
TATTTTCATTTGCGCGCACACAATAATAATTTTTGG [CACACA_site3525] | 9.45
AACAATTATTTATCTACACACTTTTATGTTATTTAC [CACACA_site9] | 9.7
TAAAAAATATAAATGACACACACTTAAAAACAAAGA [CACACA_site671] | 9.98
TATAAATTAATGACATGTACATAAAAGTATAGATGT [XGTACX_site6534] | 9.53
AAATATACAAAATATACACACATATTTATTTATGAT [CACACA_site2051] | 9.56
TCTTCCCAAATAAAGTGTACATAAATACGAATAATA [XGTACX_site4363] | 9.15
AAAATTAAAATATATACACACATATATATATTAAAT [CACACA_site4419] | 9.57
TAATGTATATGTAAATGTACATGTATATTATTTAAA [XGTACX_site1840] | 9.14
ATCAAAGATAAATTTACACACATATATATATATATA [CACACA_site2969] | 9.39
AAGATATTTGTATAATGTACAAAACTATATAAAACT [XGTACX_site1433] | 9.43
TTTATATAATAGTTATGTACTTAAACGAAAGATACA [XGTACX_site8495] | 9.07
AAATACAAGGGACATGCATACCACTATTTTTTAAAT [TGCATGCA_site588] | 9.32
AAAGATATTTTTATCTCACACATATAATATATATAT [CACACA_site5478] | 9.24
TATAGAAAATTTATATGTACATATATATATATATAT [XGTACX_site4451] | 9.06
TAAAATTTAAGTTATACACACTTAAGTAACATCATC [CACACA_site6395] | 9.43
TATTTACAGACATGCGCACACATAAATAAATAATAG [CACACA_site2411] | 9.4
GTTACTGCATACATAACACACATATTCAAAACACAT [CACACA_site3502] | 9.59
GCATATGTATATAATGTGCACATGGATTATATAAAA | 9.24
GAACTAATAATGAAAAGTACACATACACATATATAT [XGTACX_site6789] | 9.58
AAATGTATACACATGGTGCGTAATATATTATATATA [GTGCAC_site9877] | 9.24
CTACCAAATCTATAGACACACATATATATATATATT [CACACA_site2486] | 9.39
TATATAATATTACGTTGTACACTTTAATCTCCCTTC [XGTACX_site5577] | 9.31
ACCATTTGAAAATTCACACACTTTATTTTGTTATAT [CACACA_site5976] | 9.77

Sequence | gcPBM binding intensity (ln)
ACTAATATGCAATATTGTACATATATATAGAAATAT [XGTACX_site5273] | 9.22
TATAATCAATGCCAAAGTACATATTAATATATTTAT [XGTACX_site4558] | 9.21
ATTGAAAAATAAAAATGTACACATGTAGCATACCAT [XGTACX_site3275] | 9.45
AATATATCGCATAGTTGTACAGAATTTTTACTTTTA [XGTACX_site8192] | 9.29
TAAGTTTGTCAATCAACACACACCTATTTATTATAT [CACACA_site3919] | 9.58
CACTTTAATTTATGCACACATATGGAACAACAGCCA [CACACA_site994] | 9.44
CTTAAAATGATAATATGTACACATAAATAATATATA [XGTACX_site8330] | 9.24
TTTTTTGACATTCCTTTTAATAATTAACGAAAGGCA [GTGCAC_negctrl_site377] | 8.78
AAATGATATAAATTATAAAATGGATTTTTTCCATTG [CACACA_negctrl_site420] | 8.98
TTTAAAAATTAATTCTGTACACATTTTTATTATATT [XGTACX_site4212] | 9.43
ATTCCTGGACCGTTCATGCACTTGCAGAACGTCCAT | 8.99
TTTATGAAATGTTGCACACAAAAAACAACATGTTTT [CACACA_site1440] | 9.25
AAAAAAAAAAAAAGTGCACACGATTTAAGGCCTATA [CACACA_site2823] | 9.48
ATAAAATTTTATATGGGTACATAATATAATATATAT [XGTACX_site8160] | 9.21
ATATATATATATATATGTACACATATATTTCTTTTC [XGTACX_site3443] | 8.95
ATATATAATTCCCAAGTGCATTTATTTTAATTATTA | 9.38
TTCATTCAAATCCAAGCATGCTTTATTAAAAAATTA [TGCATGCA_site567] | 8.82
TACGCCTATAACGGCTGTACACCTTACTTTTTTTAA [XGTACX_site6818] | 9.31
TATGATTTTTATATATGTACGTATGGTGTTTTACAA [XGTACX_site6100] | 9.21
AATAAATTTCAAAATTGTACTCATTTCCTTTCCCAA [XGTACX_site5887] | 8.98
TGTGAAATAAAATTTGTACACACATATATATATATA [CACACA_site8093] | 9.26
TTCTTCTGTTTTATTACACACCATTTTGTGTCTACA [CACACA_site8643] | 9.87
